# Measurements reported in the supplement of paper PMC11417369.
# ± gives the standard deviation of the averaged measurements. The list shows a part of the results.
# System: PfAP2-LT AP2 domain (GST-tagged)
# Assay: gcPBM binding intensity (ln(normalized median fluorescence intensity)); higher = stronger DNA binding
# Summary of the method: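 After 1 h on an Agilent 4 × 180k array of primer-extended double-stranded 36-bp intergenic genomic probes and negative controls, bound GST-tagged P. falciparum DNA-binding domains were detected with Alexa488 anti-GST antibody and scanned at 488 nm. The domains had been expressed in E. coli, and binding took place in 1× PBS with 1% milk, 0.2 mg/ml BSA, 0.5% salmon testes DNA and 0.03% Triton X-100. Binding intensity is the highest Masliner-normalised natural-log median intensity across replicate spots of either probe orientation.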
row,Sequence,gcPBM binding intensity (ln)
1,TGTATGTTTATTTGATGTACGGTCATACATATAAAT [XGTACX_site5176],8.82 ± 0.42
2,CTATTTTTTGTATAAACATGCATATAGTAGATATGG [TGCATGCA_site670],8.63 ± 0.41
3,TTTAATATTTTTTTTTGTACTTATTTGTAGAAATAT [XGTACX_site3046],8.49 ± 0.54
4,AGGCTCATTTTTTTTAGTACATCAAAAAAAAAAAAA [TGCATGCA_negctrl_site591],8.18 ± 0.39
5,CGCATGTATTTTGTGTGTACTAATTATAATCAACTT [XGTACX_site4709],9.03 ± 0.29
6,TTTTACATATACATGTGTACATAACAAAGAATGTTT [XGTACX_site2406],8.78 ± 0.42
7,TAATATTGTATTTATGTACACACATTTTTGGAATAT [CACACA_site8371],9.06 ± 0.42
8,TTTTTTAATAAATGGTGTACATATTTTTTTTATACT [XGTACX_site8584],8.62 ± 0.47
9,AGTGTATTAATTCTCACACACTAAGAAAAAAAAAAA [CACACA_site6007],8.89 ± 0.43
10,ATTCATAATATTATAACACACGCTTATTACATAAAG [CACACA_site980],8.79 ± 0.37
11,ATATATATATATATGTGTACATATGTATATATATCT [XGTACX_site2930],9.37 ± 0.32
12,AGATGGAGAAAGTTATGTACACATATATAAATATGT [XGTACX_site6150],8.86 ± 0.44
13,CCCATGTAATGAACATGTACATAATAATTTATAAAT [XGTACX_site8687],8.85 ± 0.32
14,TATATACATATGTGATGTACATTTTTTGTAATATAA [XGTACX_site6985],8.61 ± 0.38
15,TAACACATATATTGTTGTACATTCAAACTGAAAAAT [XGTACX_site5565],8.74 ± 0.37
16,TTTTTTTTATTAAAAAGTACTAAACAAATTATATAT [XGTACX_site121],8.1 ± 0.52
17,CCATAACTCATATGCACACATAAATATTACATATAT [CACACA_site3821],9.22 ± 0.49
18,TTTTAAAAAGAAAAAAATAACATACATATATATATA [CACACA_negctrl_site240],8.66 ± 0.29
19,ATTTTTTTTTTTTTTTTTTTTGAGAAGAACTTTTTC [CACACA_negctrl_site1019],8.3 ± 0.58
20,ATGTCTACAGTTTTTGCACACATATAAATAAAAAAA [CACACA_site3600],8.93 ± 0.39
21,AAACATCATAAATATACACACATATTTATATTTATA [CACACA_site6437],8.95 ± 0.4
22,CAAAATAAAAAATTCACACACATATAAATATAAATA [CACACA_site7065],9.12 ± 0.43
23,AAAAAAAAAGGTACTACACACTATTATCAATAGAAA [CACACA_site91],8.82 ± 0.49
24,TACTTATTATGAAACACACACCAAAACTACAGAATA [CACACA_site6265],9.24 ± 0.27
